PubChem BioAssay (NCATS)
The other results are listed elsewhere or left out. Shown are side measurements of this screen, not its main read-out; they come without a call. The list favours compounds with an active or inconclusive main result. Potencies come from curve fits of mixed quality, noted in brackets.

The compounds below were run against Catechol O-methyltransferase (Homo sapiens) (UniProt P21964) (assay: Confirmatory Screen for Target Class Profiling of Small Molecule Inhibitors of Methyltransferases (AID 1745852;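 also: inhibitor potency for blocking SAH production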)). Conditions: MTase-Glo luminescence, SAH detection, recombinant enzyme; measured here: COMT inhibition potency.
Tags tell the direction and shape of the fitted curve.

Sequence of UniProt P21964 (P21964 whole entry, looked up): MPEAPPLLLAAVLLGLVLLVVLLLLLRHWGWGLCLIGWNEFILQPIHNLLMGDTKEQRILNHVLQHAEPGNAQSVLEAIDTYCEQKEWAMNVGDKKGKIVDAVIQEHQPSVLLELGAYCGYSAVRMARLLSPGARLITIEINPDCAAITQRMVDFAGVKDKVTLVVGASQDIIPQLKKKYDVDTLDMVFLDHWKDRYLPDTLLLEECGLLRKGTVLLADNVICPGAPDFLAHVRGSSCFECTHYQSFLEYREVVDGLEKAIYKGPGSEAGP

SMILES	IC50
CC(C)(O)C1CC=C(C(=O)OCC2OC(Oc3c(O)cc(C(=O)O)cc3O)C(O)C(O)C2O)CC1 (stereo not given)	0.663 µM [falling, full curve]
COc1c2cc(c(O[C@@H]3O[C@H](CO)[C@@H](O)[C@H](O)[C@H]3O)c1OC)CCCCC(O)CCc1ccc(O)c-2c1 (stereo not given in full)	1.48 µM [falling, full curve]
COc1cc(F)ccc1-c1cc(-c2ccc(=O)[nH]c2)c2cncn2c1	5.55 µM [falling, full curve]
COC1C=C(C)C(O)(CO)C2(C)CCCC(C)(C)C12 (stereo not given)	17.1 µM [falling, partial curve]
CC(=O)OC/C(=C/C(=O)O)CC[C@@H]1C(C=O)=CC[C@@H]2C(C)(C)CCC[C@@]12C	9.42 µM [falling, partial curve]
CC(=O)c1c(C)cccc1O[C@@H]1O[C@H](CO)[C@@H](O)[C@H](O)[C@H]1O	11.9 µM [falling, partial curve]
COc1cc(/C=C/C(=O)OC[C@H]2O[C@@H](OC3OC=C(C(=O)O)C4C(O)CC(C)(O)C34)[C@H](O)[C@@H](O)[C@@H]2O)cc(OC)c1O (stereo not given in full)	5.69 µM [falling, partial curve]
CC1(C)CC[C@]2(C(=O)O[C@@H]3O[C@H](CO)[C@@H](O)[C@H](O)[C@H]3O)CC[C@]3(C)C(=CCC4[C@@]5(C)C[C@@H](O)[C@H](O)C(CO)(CO)C5CC[C@]43C)C2[C@@H]1O (stereo not given in full)	2.85 µM [falling, partial curve]
C=C1C(=O)O[C@@H]2CC(C)=C([C@@H](C)CCCOC(C)=O)[C@@H](O)[C@H]12	2.37 µM [falling, full curve]
C=C1C(=O)O[C@@H]2/C=C(\CO)CC/C=C(/C=O)C[C@H](O)[C@@H]12	1.36 µM [falling, full curve]
C=C1C(=O)OC2CC3(C)C(CC12)C(C)=CC(O)C3OC(C)=O (stereo not given)	9.42 µM [falling, partial curve]
COc1ccc(CCNC(=O)c2ccc(CN3C(=O)CCn4nccc43)cc2)cc1OC	21.5 µM [falling, partial curve, poor fit]
CCOc1cc(CNc2ccc(C(=O)O)cc2)ccc1OCc1ccccc1	21.7 µM [falling, partial curve]
OC[C@H]1O[C@@H](OCCc2ccccc2)[C@H](O[C@@H]2OC[C@@H](O)[C@H](O)[C@H]2O)[C@@H](O)[C@@H]1O	3.73 µM [falling, full curve]
O=C(O)CC(CCc1ccccc1)OC1OC(CO)C(O)C(O)C1O (stereo not given)	0.334 µM [falling, full curve]
C=C1C(=O)OC2/C=C(\C)CC/C=C(\C=O)C(OC)C(OC(=O)C(C)CC)C12 (stereo not given)	10.6 µM [falling, partial curve]
CC(C)=C1CC2C(CCC2(C)O)C(C)(O)CC1=O (stereo not given)	1.21 µM [falling, full curve]
COc1ccc(CC(NC(C)=O)C(=O)O)cc1 (stereo not given)	13.6 µM [falling, partial curve]
COCc1c(O)c(C(=O)O)c(C)c2c1OC(=O)c1c(C)cc(O)c(CO)c1O2	5.3 µM [falling, full curve]
COc1c(O)cc2c(c1O)C(=O)O[C@H](C)[C@H]2O	21.5 µM [falling, partial curve]

SMILES	IC50
CC1CC(O)C2(C)C(C(=O)O)=CCCC2C1(C)CCc1ccoc1 (stereo not given)	3.34 µM [falling, full curve]
CC1(C)CC[C@]2(C(=O)O[C@@H]3O[C@H](CO)[C@@H](O)[C@H](O)[C@H]3O)CC[C@]3(C)C(=CCC4[C@@]5(C)C[C@@H](O)[C@H](O)[C@@](C)(CO)C5CC[C@]43C)C2[C@@H]1O (stereo not given in full)	0.452 µM [falling, full curve]
Oc1ccc(CNc2ccccc2F)c2cccnc12	10.8 µM [falling, partial curve]
C=C1C(=O)OC2CC(C)C(CCC(C)O)=CCC12 (stereo not given)	0.681 µM [falling, full curve]
CC1(C)CC[C@]2(C(=O)O[C@@H]3O[C@H](CO)[C@@H](O)[C@H](O)[C@H]3O)CC[C@]3(C)C(=CCC4[C@@]5(C)C[C@@H](O)[C@H](O)[C@@](C)(CO)C5CC[C@]43C)C2C1 (stereo not given in full)	1.8 µM [falling, full curve]
CC1(C)C2CCC1(C)C(OC(=O)C(O)(CC(=O)O)CC(=O)O)C2 (stereo not given)	9.42 µM [falling, partial curve]
C=C(C(=O)O)[C@@H]1CC[C@H](C)[C@@H]2CC(=O)C(C)=C2C1	13.6 µM [falling, partial curve]
O=C(c1ccccc1)c1c(O)cc(O)cc1O[C@@H]1O[C@H](CO)[C@@H](O)[C@H](O)[C@H]1O	2.37 µM [falling, full curve]
C=C1C(=O)OC2C1CCC1(C)C(O)CC=C(C)C21 (stereo not given)	10.8 µM [falling, full curve]
C[C@]12C[C@@H](O)[C@@H]3C[C@@]1(O[C@@H]1O[C@H](CO)[C@@H](O)[C@H](O)[C@H]1O)[C@]3(COC(=O)c1ccccc1)C(=O)O2	2.64 µM [falling, full curve]
C=C1C(OC2OC(CO)C(O)C(O)C2O)CC2C(C)(C)C(O)CCC2(C)C1CC/C(C)=C\COC(=O)CC(=O)O (stereo not given)	5.69 µM [falling, partial curve]
COc1cc(/C=C/C(=O)O[C@H]2[C@H](OC(=O)/C=C/c3cc(OC)c(O)c(OC)c3)O[C@H](CO[C@@H]3O[C@H](CO)[C@@H](O)[C@H](O)[C@H]3O)[C@@H](O)[C@@H]2O)ccc1O	5.69 µM [falling, partial curve]
CC1=CC(=O)C(=C(C)C)CC2C(C)(O)CCC12O (stereo not given)	1.52 µM [falling, full curve]
C=C1[C@H]2[C@H](O[C@@H]3O[C@H](COC(=O)/C=C/c4cc(OC)c(O)c(OC)c4)[C@@H](O)[C@H](O)[C@H]3O)OC=C(C(=O)O)[C@H]2C[C@@H]1O	3.2 µM [falling, partial curve]
O=C(CCc1ccccc1)c1c(O)c([C@@H]2O[C@H](CO)[C@@H](O)[C@H](O)[C@H]2O)c(O)c([C@@H]2O[C@H](CO)[C@@H](O)[C@H](O)[C@H]2O)c1O	1.43 µM [falling, full curve]
O=C(/C=C/c1ccccc1)OC[C@]12O[C@H]1[C@@H](O)[C@@H]1C=CO[C@@H](O[C@@H]3O[C@H](CO)[C@@H](O)[C@H](O)[C@H]3O)[C@@H]12	7.44 µM [falling, partial curve]
C=C[C@](C)(CC/C=C(\C)C(=O)O)O[C@@H]1OC[C@H](O)[C@H](O)[C@H]1O	3.34 µM [falling, full curve]
C=C1C(=O)O[C@@H]2C3=C(C)CCC[C@]3(C)CC[C@@]12O	3.41 µM [falling, full curve]
CC1(C)CC[C@]2(C(=O)O)CC[C@]3(C)C(=CCC4[C@@]5(C)C[C@@H](O)[C@H](O)C(CO)(CO)C5CC[C@]43C)C2[C@@H]1O (stereo not given in full)	8.35 µM [falling, partial curve]
COc1cc(C2Oc3c(OC)cc(CCCO)cc3C2CO)ccc1O (stereo not given)	2.11 µM [falling, full curve]
